Experimental data taken from patent publication US20180305451A1 (COMPUGEN, published 2018).

T1: human HIDE1-flag (human, UniProt A8MVS5 20-230)
T1 construct: Over-expressed on HEK293, SK-MEL-5, CHO-S and CHO-S OKT3 cells (pMSCV or pcDNA3.1); whole cell extracts in WB; Entry includes the signal peptide; also called hHIDE1 Flag
T1 sequence: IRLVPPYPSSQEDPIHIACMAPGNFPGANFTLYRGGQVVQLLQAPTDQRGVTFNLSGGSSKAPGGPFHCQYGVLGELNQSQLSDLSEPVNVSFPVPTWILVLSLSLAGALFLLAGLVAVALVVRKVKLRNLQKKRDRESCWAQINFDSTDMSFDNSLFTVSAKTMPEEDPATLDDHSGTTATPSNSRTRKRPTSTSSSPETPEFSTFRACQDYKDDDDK

B1: αhHIDE1_AbD25755.1_Ser_Fab (Fab)
heavy: QVQLVQSGAEVKKPGSSVKVSCKASGGTFSSYAISWVRQAPGQGLEWMGGIVPKFGTAYYAQKFQGRVTITADESTSTAYMELSSLRSEDTAVYYCARENLVYSAIAIWGQGTLVTVSSASTKGPSVFPLAPSSKSTSGGTAALGCLVKDYFPEPVTVSWNSGALTSGVHTFPAVLQSSGLYSLSSVVTVPSSSLGTQTYICNVNHKPSNTKVDKKVEPKSEFKAEMPVLENRAAQGDITTPGGARRLTGDQTAALRDSLSDKPAKNIILLIGDGMGDSEITAARNYAEGAGGFFKGIDALPLTGQYTHYALNRKTGKPDYVTSSAASATAWSTGVKTYNGALGVDIHEKDHPTILEMAKAAGLATGNVSTAELQDATPAALVAHVTSRKCYGPSATSEKCPGNALEKGGKGSITEQLLNARADVTLGGGAKTFAETATAGEWQGKTLREQAQARGYQLVSDAASLNSVTEANQQKPLLGLFADGNMPVRWLGPKATYHGNIDKPAVTCTPNPQRNDSVPTLAQMTDKAIELLSKNEKGFFLQVEGASIDKQDHAANPCGQIGETVDLDEAVQRALEFAKKEGNTLVIVTADHAHASQIVAPDTKAPGLTQALNTKDGAVMVMSYGNSEEDSQEHTGSQLRIAAYGPHAANVVGLTDQTDLFYTMKAALGLKGAPDYKDDDDKGAPHHHHHH
light: DIQMTQSPSSLSASVGDRVTITCRASQDISNWLNWYQQKPGKAPKLLIYGASSLQSGVPSRFSGSGSGTDFTLTISSLQPEDFATYYCQQVTSTPFTFGQGTKVEIKRTVAAPSVFIFPPSDEQLKSGTASVVCLLNNFYPREAKVQWKVDNALQSGNSQESVTEQDSKDSTYSLSSTLTLSKADYEKHKVYACEVTHQGLSSPVTKSFNRGEA
modifications: Fab-A-FH format: the Fd chain carries bacterial alkaline phosphatase (which dimerises it, making the Fab bivalent), then FLAG and His6; all of these are in the letters.
notes: Serotec HuCAL Fab-A-FH; also called Ab333
B2: αhHIDE1_AbD25760.1_Ser_Fab (Fab)
heavy: QVQLVQSGAEVKKPGSSVKVSCKASGGTFSDYAINWVRQAPGQGLEWMGGIIPNFGTANYAQKFQGRVTITADESTSTAYMELSSLRSEDTAVYYCARGMRSLGGLSYYFDLWGQGTLVTVSSASTKGPSVFPLAPSSKSTSGGTAALGCLVKDYFPEPVTVSWNSGALTSGVHTFPAVLQSSGLYSLSSVVTVPSSSLGTQTYICNVNHKPSNTKVDKKVEPKSEFKAEMPVLENRAAQGDITTPGGARRLTGDQTAALRDSLSDKPAKNIILLIGDGMGDSEITAARNYAEGAGGFFKGIDALPLTGQYTHYALNRKTGKPDYVTSSAASATAWSTGVKTYNGALGVDIHEKDHPTILEMAKAAGLATGNVSTAELQDATPAALVAHVTSRKCYGPSATSEKCPGNALEKGGKGSITEQLLNARADVTLGGGAKTFAETATAGEWQGKTLREQAQARGYQLVSDAASLNSVTEANQQKPLLGLFADGNMPVRWLGPKATYHGNIDKPAVTCTPNPQRNDSVPTLAQMTDKAIELLSKNEKGFFLQVEGASIDKQDHAANPCGQIGETVDLDEAVQRALEFAKKEGNTLVIVTADHAHASQIVAPDTKAPGLTQALNTKDGAVMVMSYGNSEEDSQEHTGSQLRIAAYGPHAANVVGLTDQTDLFYTMKAALGLKGAPDYKDDDDKGAPHHHHHH
light: B1 light with D28S, S30N, N31S, W32Y, G50A, V91Y, T92I, S93H, T94Y, F96I
modifications: Fab-A-FH format: the Fd chain carries bacterial alkaline phosphatase (which dimerises it, making the Fab bivalent), then FLAG and His6; all of these are in the letters.
notes: Serotec HuCAL Fab-A-FH

What was measured:
human HIDE1-flag = molecular target: T1, human HIDE1-flag; assay: FACS, HEK293 human HIDE1 Flag cells vs HEK293 empty vector, goat anti-human IgG F(ab')2-PE
[1] = molecular target: T2, HIDE1_HH-1 (Human ECD + human IgG1 Fc mutated C220S at hinge), without SP (human); assay: BLI Octet RED384, bivalent Fab-A-FH
T2 construct: Batch #280 in the Serotec and phage display work; also called HIDE1 hECD-hIg; HIDE1 (H:H) recombinant Fc fusion protein

Binder | FACS analysis (GeoMean fold) human HIDE1/empty vector (human HIDE1-flag) | Kd [1] | koff [1]
B1 | 130 fold | 0.02 nM | 2.65e-05 s⁻¹
B2 | 107 fold | 0.03 nM | 1.72e-05 s⁻¹

Residue numbers refer to the chain shown, from its start.
